In PubChem BioAssay AID686978 (National Center for Advancing Translational Sciences (NCATS), 2013):
In all, about 420,000 compounds went through this assay and about 64,000 (15%) were called active. Inconclusive means that the source gave no clear call. Such entries were picked first, then a sample of the others. Calls follow the shape of the dose curve; as a rule, active = well fitted inhibition curve with a large enough effect; inconclusive = small, poorly fitted or top-dose-only effect; inactive = flat fitted curve, though single readings scatter. Potencies of inconclusive entries are left out as doubtful fits.
% is scaled to controls: 0 for no effect and ±100 for the full control effect; potency is read from the fitted curve at half-maximal effect; tags tell the direction and shape of the fitted curve.

Test: qHTS for Inhibitors of human tyrosyl-DNA phosphodiesterase 1 (TDP1): qHTS in cells in absence of CPT; also: nearly all actives have a fitted effect of over 55% in size
Conditions: DT40 Tdp1-/- hTDP1 cells, no CPT, ATP luminescence, 48 h; activity change, negative = growth inhibition: at 46.2 µM (top of the series) unless noted
How it was run: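 Growth kinetics read by CellTiter-Glo luminescence after ≥48 hr at 37 °C. Cells: DT40 Tdp1-/- stably carrying human TDP1, 400 per well, compound exposure in the absence of CPT (DMSO vehicle).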
In the case of C=CCC(C=C)[N+]1(CC(=O)OC)CCCCC1 (stereo not drawn), the activity change, negative = growth inhibition is reported as inconclusive: -37.1% [inhibitor].
For CCC(C(=O)N1CCN(c2ccccc2)CC1)n1c(C)c2cnn(-c3ccccc3)c(=O)c2c1C (stereo not drawn), the Potency was inconclusive [inhibitor, partial curve].
With CCOC(NC(=O)c1ccccc1)C(NC(=O)c1ccccc1)OCC (stereo not drawn) the “activity change, negative = growth inhibition” value was inactive: 0.29%.
With CCCC[C@@H]1C[C@H]1[C@@H](NC(=O)c1ccco1)c1ccc(Cl)cc1 the Potency was inconclusive [inhibitor, single point].
In the case of Cc1cc(Cl)ccc1OCC(=O)NNC(=O)C1CCCO1 (stereo not drawn), the “activity change, negative = growth inhibition” value is reported as inactive: -2.06%.
For O=C1N(c2ccc(Cl)cc2)C(c2ccccc2)N2CCCN12 (stereo not drawn), the activity change, negative = growth inhibition was inconclusive: -34.3% [inhibitor].
In the case of N#Cc1c(-c2ccc(F)cc2)cc(-c2cccs2)nc1SCC(=O)O, the Potency is reported as inconclusive [inhibitor, single point].
With CCOC(=O)C1CCN(C(=O)CNC(=O)c2nn(-c3ccc(OC)c(OC)c3)c(=O)c3ccccc23)CC1 the Potency was inconclusive [inhibitor, single point].
With CCOC(=O)N/N=C(\c1ccccc1)C(O)c1ccccc1 (stereo not drawn) the Potency was inconclusive [inhibitor, single point].
With CCN(CC)c1ccc(NC(=O)CCCN2C(=O)C(c3ccccc3)Oc3cccnc32)c(C)c1 (stereo not drawn) the Potency was active: 10.3 µM.
With O=C(NC1CCCC1)c1ccc2c(=O)n(Cc3ccccc3)c(SCc3cccc(F)c3)nc2c1 the Potency was inconclusive [inhibitor, partial curve].
For COc1ccc(-n2c(C)cc(-c3cn4cccc(C)c4n3)c2C)cc1, the Potency was inconclusive [inhibitor, single point].
In the case of COc1ccc(S(=O)(=O)Nc2ccc(N3CCOCC3)nc2)cc1, the Potency is reported as inconclusive [inhibitor, single point].
With O=C1C(=Cc2cn(-c3ccccc3)nc2-c2ccc(OCc3ccccc3F)cc2)SC(=S)N1CCS(=O)(=O)O the Potency was inconclusive [inhibitor, single point].
In the case of CC(=O)c1c(NCCc2ccccc2)nc(=S)n(-c2ccccc2)c1C, the Potency is reported as active: 18.4 µM.
In the case of Cc1ccc(CN2[C@@H](c3ccccc3)COCCS2(=O)=O)cc1, the Potency is reported as inconclusive [inhibitor, single point].
With CSc1ccc(-c2nnc(NC(=O)c3ccc4c(c3)OCCO4)o2)cc1 the Potency was inconclusive [inhibitor, single point].
With Cc1ccc(OCC(=O)Nc2ccc(N3CCN(C(=O)c4ccco4)CC3)cc2)cc1 the Potency was active: 23.1 µM.
